Assay [1] deals with H9 teratoma-derived LAM model cells, TSC2-/-. Put plainly: percent SyTOX+ dead cells; higher = more cytotoxic. Conditions: 5 µM, treatment time 72 h, culture: 3D hyaluronic acid hydrogel.
In assay [2] the test system is H9 teratoma-derived LAM model cells, WT. Put plainly: percent SyTOX+ dead cells; higher = more cytotoxic. Conditions: 5 µM, treatment time 72 h, culture: 3D hyaluronic acid hydrogel, genotype: WT.
The test system of assay [3] is H9 teratoma-derived LAM model cells, TSC2-/-. Put plainly: percent of cells invaded past median invasion distance of vehicle control; LAM is lymphangioleiomyomatosis; the cells come from teratomas of the human stem cell line H9; higher = more invasion; extreme values may be limits of the assay. The note with it: 5 µM, treatment time 72 h, culture: 3D hyaluronic acid hydrogel.
Assay [4] relates to H9 teratoma-derived LAM model cells, WT. The description is as above. The note with it: 5 µM, treatment time 72 h, culture: 3D hyaluronic acid hydrogel, genotype: WT.

The other results are listed elsewhere or left out. Most values come without repeats; read them as rough. Square brackets hold non-standard residues; d marks the D form. Peptide text beside a SMILES is read from it. ξ: configuration not given here. Aoe(9ξ) = N[C@@H](CCCCCC(=O)C1CO1)C(=O)O; dPip = O=C(O)[C@H]1CCCCN1

The values below come from the supplement of paper PMC10502849.
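For percent SyTOX+ dead cells in this document: cells seeded atop a hyaluronic acid gel crosslinked via MMP-cleavable peptides, containing vitronectin peptides and methylcellulose, imaged live by high-content microscopy with automated analysis, one technical replicate per compound.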
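For percent of cells invaded past median invasion distance of vehicle control in this document: live cells imaged by high content microscopy and scored with in-house automated image analysis, one technical replicate per compound in each genotype and rapamycin condition.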

For `COc1ccc(CC2NCC(O)C2OC(C)=O)cc1` (stereo not given), the “percent SyTOX+ dead cells” value in assay [1] (rapamycin 0 nM) is 37%; in assay [1] (rapamycin 20 nM), 32.4%; in assay [2] (rapamycin 0 nM) it was 47.1%; in assay [2] (rapamycin 20 nM), 33.3%. In addition, the percent in assay [3] (rapamycin 0 nM) is 11.2%; in assay [3] (rapamycin 20 nM), 8.48%; in assay [4] (rapamycin 0 nM), 3.43%; in assay [4] (rapamycin 20 nM), 0%.
As for `CC1=C2CC3C(CC=C4CC(O)CCC43C)C2CCC12OC1CC(C)CNC1C2C` (stereo not given) [Cyclopamine, 11-deoxojervine], the “percent SyTOX+ dead cells” value in assay [1] (rapamycin 0 nM) was 17.1%; in assay [1] (rapamycin 20 nM) it was 10.8%; in assay [2] (rapamycin 0 nM), 13.6%; in assay [2] (rapamycin 20 nM) it was 3.55%. Further, the percent stood at 80.5% in assay [3] (rapamycin 0 nM), 18.7% in assay [3] (rapamycin 20 nM), 74.8% in assay [4] (rapamycin 0 nM) and 90.4% in assay [4] (rapamycin 20 nM).
Take `Cc1ccccc1-n1c(Cn2cnc3c(N)ncnc32)nc2cccc(C)c2c1=O`: the “percent SyTOX+ dead cells” value was found to be 20.6% in assay [1] (rapamycin 0 nM), 16.8% in assay [1] (rapamycin 20 nM), 11.7% in assay [2] (rapamycin 0 nM) and 16.7% in assay [2] (rapamycin 20 nM). For the same compound, the percent in assay [3] (rapamycin 0 nM) was 18.6%; in assay [3] (rapamycin 20 nM), 5.76%; in assay [4] (rapamycin 0 nM), 56.9%; in assay [4] (rapamycin 20 nM), 18.6%.
Regarding `O=C1NC(=O)c2c1c1c3ccccc3[nH]c1c1[nH]c3ccccc3c21` [Arcyriaflavin A], the “percent SyTOX+ dead cells” value stood at 76.5% in assay [1] (rapamycin 0 nM), 79.5% in assay [1] (rapamycin 20 nM), 82.1% in assay [2] (rapamycin 0 nM) and 80.7% in assay [2] (rapamycin 20 nM). Further, the percent in assay [3] (rapamycin 0 nM) worked out at 8.46%; in assay [3] (rapamycin 20 nM), 7.14%; in assay [4] (rapamycin 0 nM), 2.32%; in assay [4] (rapamycin 20 nM), 2.15%.
Take `Cc1cc2c(C(C)C)c(O)c(O)c(C=O)c2c(O)c1-c1c(C)cc2c(C(C)C)c(O)c(O)c(C=O)c2c1O`: the “percent SyTOX+ dead cells” value in assay [1] (rapamycin 0 nM) was 8.96%; in assay [1] (rapamycin 20 nM), 9.27%; in assay [2] (rapamycin 0 nM), 11.2%; in assay [2] (rapamycin 20 nM) it was 7.1%. Besides, the percent came to 59.3% in assay [3] (rapamycin 0 nM), 33.6% in assay [3] (rapamycin 20 nM), 41.2% in assay [4] (rapamycin 0 nM) and 36.8% in assay [4] (rapamycin 20 nM).
In the case of `O=C(O)CNC(=O)c1c(O)c2ccccc2n(Cc2ccccc2)c1=O`, the “percent SyTOX+ dead cells” value was 10.7% in assay [1] (rapamycin 0 nM), 8.95% in assay [1] (rapamycin 20 nM), 11.2% in assay [2] (rapamycin 0 nM) and 11.2% in assay [2] (rapamycin 20 nM). The percent in assay [3] (rapamycin 0 nM) was determined as 34%; in assay [3] (rapamycin 20 nM), 23.2%; in assay [4] (rapamycin 0 nM) it was 39.5%; in assay [4] (rapamycin 20 nM) it was 35.9%.
As to `O=C(NCCN1CCC2(CC1)C(=O)NCN2c1ccccc1)c1ccc2ccccc2c1`, the “percent SyTOX+ dead cells” value in assay [1] (rapamycin 0 nM) worked out at 9.57%; in assay [1] (rapamycin 20 nM), 5.76%; in assay [2] (rapamycin 0 nM), 8.15%; in assay [2] (rapamycin 20 nM), 11.7%. Moreover, the percent in assay [3] (rapamycin 0 nM) amounted to 80.2%; in assay [3] (rapamycin 20 nM) it was 53.1%; in assay [4] (rapamycin 0 nM) it was 84.4%; in assay [4] (rapamycin 20 nM), 67.8%.
For the compound `C/C(O)=C(\C#N)C(=O)Nc1cc(Br)ccc1Br`, the “percent SyTOX+ dead cells” value in assay [1] (rapamycin 0 nM) stood at 11.1%; in assay [1] (rapamycin 20 nM) it was 10.7%; in assay [2] (rapamycin 0 nM) it was 9.93%; in assay [2] (rapamycin 20 nM) it was 10.7%. For the same compound, the percent in assay [3] (rapamycin 0 nM) came to 12.3%; in assay [3] (rapamycin 20 nM) it was 25.8%; in assay [4] (rapamycin 0 nM) it was 41.3%; in assay [4] (rapamycin 20 nM), 20.4%.
With `CC(C)[C@H]1C(=O)N[C@H](CO)Cc2c[nH]c3cccc(c23)N1C` [(-)-Indolactam V], the “percent SyTOX+ dead cells” value amounted to 10.5% in assay [1] (rapamycin 0 nM), 6.95% in assay [1] (rapamycin 20 nM), 7.56% in assay [2] (rapamycin 0 nM) and 5.97% in assay [2] (rapamycin 20 nM). Besides, the percent turned out to be 60.8% in assay [3] (rapamycin 0 nM), 48.3% in assay [3] (rapamycin 20 nM), 40.4% in assay [4] (rapamycin 0 nM) and 37% in assay [4] (rapamycin 20 nM).
Turning to `C[C@]12O[C@H](C[C@]1(O)CO)n1c3ccccc3c3c4c(c5c6ccccc6n2c5c31)CNC4=O` [Lestaurtinib, CEP-701, KT-5555, SPM-924], the “percent SyTOX+ dead cells” value in assay [1] (rapamycin 0 nM) amounted to 20%; in assay [1] (rapamycin 20 nM) it was 9.38%; in assay [2] (rapamycin 0 nM), 45%; in assay [2] (rapamycin 20 nM), 36.1%. In addition, the percent in assay [3] (rapamycin 0 nM) is 0%; in assay [3] (rapamycin 20 nM) it was 0%; in assay [4] (rapamycin 0 nM), 2.5%; in assay [4] (rapamycin 20 nM), 0%.
With `CC(C)(C)C(O)(CCc1ccc(Cl)cc1)Cn1cncn1` (stereo not given) [Tebuconazole], the “percent SyTOX+ dead cells” value in assay [1] (rapamycin 0 nM) came to 8.7%; in assay [1] (rapamycin 20 nM), 4.01%; in assay [2] (rapamycin 0 nM), 8.08%; in assay [2] (rapamycin 20 nM) it was 9.72%. Also, the percent was 60% in assay [3] (rapamycin 0 nM), 41.5% in assay [3] (rapamycin 20 nM), 57.5% in assay [4] (rapamycin 0 nM) and 45.1% in assay [4] (rapamycin 20 nM).
Consider `COC[C@H]1OC(=O)c2coc3c2[C@@]1(C)C1=C(C3=O)[C@@H]2CCC(=O)[C@@]2(C)C[C@H]1OC(C)=O`, for which the “percent SyTOX+ dead cells” value in assay [1] (rapamycin 0 nM) was found to be 25.4%; in assay [1] (rapamycin 20 nM) it was 24%; in assay [2] (rapamycin 0 nM), 32.7%; in assay [2] (rapamycin 20 nM), 34.5%. Further, the percent in assay [3] (rapamycin 0 nM) stood at 12.3%; in assay [3] (rapamycin 20 nM) it was 24.8%; in assay [4] (rapamycin 0 nM), 9.09%; in assay [4] (rapamycin 20 nM), 16.4%.
In the case of `O=C(CCCCC[C@@H]1NC(=O)[C@H]2CCCCN2C(=O)[C@H](Cc2ccccc2)NC(=O)[C@H](Cc2ccccc2)NC1=O)C1CO1` (stereo not given in full) [Trapoxin A, RF-1023-A] (cyclo(FF[dPip][Aoe(9ξ)])), the “percent SyTOX+ dead cells” value came out at 45.9% in assay [1] (rapamycin 0 nM), 20.2% in assay [1] (rapamycin 20 nM), 27.6% in assay [2] (rapamycin 0 nM) and 5.02% in assay [2] (rapamycin 20 nM). The percent in assay [3] (rapamycin 0 nM) was determined as 2.74%; in assay [3] (rapamycin 20 nM), 1.56%; in assay [4] (rapamycin 0 nM), 0%; in assay [4] (rapamycin 20 nM) it was 0.31%.
Consider `COc1ccc2c(c1)/C(=C/c1cnc[nH]1)C(=O)N2`, for which the “percent SyTOX+ dead cells” value in assay [1] (rapamycin 0 nM) was 14.5%; in assay [1] (rapamycin 20 nM) it was 19.5%; in assay [2] (rapamycin 0 nM) it was 27.1%; in assay [2] (rapamycin 20 nM), 29.4%. Besides, the percent stood at 2.2% in assay [3] (rapamycin 0 nM), 2.54% in assay [3] (rapamycin 20 nM), 4.17% in assay [4] (rapamycin 0 nM) and 0.62% in assay [4] (rapamycin 20 nM).
Take `NC(=S)N/N=C/c1coc2ccccc2c1=O.[Cl][Cu][Cl]`: the “percent SyTOX+ dead cells” value in assay [1] (rapamycin 0 nM) was found to be 6.79%; in assay [1] (rapamycin 20 nM) it was 5.71%; in assay [2] (rapamycin 0 nM) it was 21.1%; in assay [2] (rapamycin 20 nM), 18.2%. Also, the percent in assay [3] (rapamycin 0 nM) was 47.5%; in assay [3] (rapamycin 20 nM), 33.7%; in assay [4] (rapamycin 0 nM) it was 4.74%; in assay [4] (rapamycin 20 nM), 26.6%.
